The campaign covered roughly 44,000 compounds. About 340 (0.77%) were called active. About 5% were inconclusive and are not listed. The call rests on the fitted dose curve; in most records, active means well fitted inhibition curve with a large enough effect; inconclusive means small, poorly fitted or top-dose-only effect; inactive means flat fitted curve, though single readings scatter. This is one part of the list.
assay: Acumen qHTS Assay for Inhibitors of the mTORC1 Signaling Pathway in MEF (Tsc2-/-, p53-/-) Cells: Sytravon; conditions: phospho-rpS6 immunofluorescence/PI, 24 h; series mostly up to 38.3 µM; activity change, negative = inhibition: at the top concentration;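 further: plate controls were DMSO for no effect and rapamycin for full effect; nearly all actives have a fitted effect of over 50% in size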
In short: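 Immunofluorescence of rpS6 phosphorylation in Tsc2-/-, p53-/- MEFs after 24 h compound exposure, normalized to propidium iodide signal. Activity is expressed as % positive cells, thresholded with 7.5 nM rapamycin.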

Activity change, negative = inhibition, inactive:
CCCSCCCNC(=O)c1sc2nc(C)cc(C)c2c1-n1cccc1 -0.0028%, COc1cccc(NCc2nnc3n2CCCCC3)c1 -11.7%, Cc1ccc(-c2noc(-c3cccnc3N(C)Cc3ccc(Cl)cc3)n2)cc1 4.67%, CCOc1ccc(NC(=O)CN(c2ccc(C)cc2)S(=O)(=O)c2cccs2)cc1 -9.24%, CCc1cccc(C)c1Nc1c(-c2ccc(N(C)C)cc2)nc2cnccn12 -20.7%, COc1cccc(CNC(=O)c2ccc3nc(CCc4ccccc4)oc3c2)c1OC 1.33%, COc1ccc(-c2nc3ccccc3s2)cc1NC(=O)c1cccc(F)c1 -9.74%, Cc1ccc(-n2nc(C)c3c(C)c(CCC(=O)NCc4ccc(Cl)cc4)c(C)nc32)cc1 -1.29%, CCOc1ccc(CNCCSc2nnnn2C)cc1 5.4%, COC(=O)c1ccccc1NC(=O)Cn1c(=O)n(-c2ccc(C)cc2)c(=O)c2ccccc21 -22.9%, COc1cc(Nc2nc3c(S(=O)(=O)c4cccc(Cl)c4)nnn3c3ccsc23)cc(OC)c1 -10.1%, CCOc1ccc(NC(=O)Cn2nc(CC)n3c(cc4sccc43)c2=O)cc1 0.435%, Cc1ccc2c(c1)c1c(c(=O)n(-c3cccc(Cl)c3)c(=O)n1CC(N)=O)n2C -1.96%, COc1ccc(OCC(=O)Nc2cc(-c3nc4ccccc4o3)ccc2Cl)cc1 1.24%, O=C1Nc2ccccc2C1Cc1ccc(Br)cc1 (stereo not drawn) -0.701%, Cc1ccc(NC(=O)CN2C(=O)c3ccccc3Sc3ccc(C(=O)N4CCOCC4)cc32)cc1C 0.57%, CCC(=O)N1CCc2cc(S(=O)(=O)NCCC(=O)Nc3ccc(C)cc3C)ccc21 0.679%, Cc1ccc(NC(=O)CSc2nc3nccnc3c(=O)n2CCc2c[nH]c3ccccc23)cc1C -0.644%, Cc1ccccc1OCCSc1nc2ccc(NC(=O)c3ccco3)cc2s1 -8.75%, Oc1c(C(c2ccc(Cl)cc2Cl)N2CCN(Cc3ccccc3)CC2)sc2nc(-c3ccco3)nn12 (stereo not drawn) -9.94%, CC(=O)c1cccc(NC(=O)c2cc3sc(Cl)cc3n2C)c1 2.26%, Cc1ccc(CNC(=O)Cn2ccn(-c3ccc(F)c(F)c3)c(=O)c2=O)cc1 3.67%, CCC(Sc1nc2ccncc2[nH]1)C(=O)Nc1cc(C)ccc1C (stereo not drawn) 1.22%, COCCNC(=O)CCCn1c(SCc2ccccc2C)nc2c(sc3ccccc32)c1=O 0.727%, Cc1ccc(C2N3CC4(C)CN2CC(c2ccccc2)(C3)C4=O)cc1 (stereo not drawn) 2.1%, CCn1cc(/C=C(\NC(=O)c2ccccc2Cl)C(=O)NCCCn2ccnc2)c2ccccc21 0.527%, Cc1ccc(CNC(=O)c2ccc(N3Cc4ccccc4Oc4ncccc43)s2)cc1 -1.87%, CCOc1ccc(C(=O)Nc2ccc(C(=O)OCc3cc(=O)n4c(C)csc4n3)cc2)cc1 3.82%, CCOCCCNC(=O)C(c1ccc(Cl)cc1)N(Cc1ccc2c(c1)OCO2)C(=O)c1ccc(NC(C)=O)cc1 (stereo not drawn) -11.2%, Cc1ccc(Cl)cc1NC(=O)c1cc(S(=O)(=O)N2CCOCC2)cn1C -1.83%, COc1ccccc1CNc1ncnc2c1nc1n2CCCC1 1.22%, O=C(O)c1ccc2c(c1)N(Cc1ccc(F)cc1)C(=O)c1ccccc1S2=O (stereo not drawn) 0.687%, Cc1cc(NC(=O)c2cc(-c3ccc(F)cc3)on2)nn1Cc1ccc(Cl)cc1 -3.41%, COc1ccccc1CNS(=O)(=O)c1c(C)nc2sc(C)cn2c1=O -0.817%, CC1CCN(S(=O)(=O)c2ccc3c(c2)N(CC(=O)NCCN(C)C)C(=O)CS3)CC1 -0.951%, O=C(NCCc1ccccc1)c1ccc2c(c1)CCN2S(=O)(=O)c1ccc(Cl)cc1 -10.6%, Cc1ccc2c(CC(=O)Nc3ccc(S(=O)(=O)N4CCCC(C)C4)cc3)coc2c1 (stereo not drawn) 2.44%, O=C(Cn1c(=O)c2cccn2c2ccc(F)cc21)Nc1cccc(F)c1 -1.79%, CCCCN(C)C(=O)C1CCC(Cn2c(=O)[nH]c3ccsc3c2=O)CC1 (stereo not drawn) -2.51%, OC(c1ccccc1)c1nc2ccccc2n1Cc1c(F)cccc1Cl (stereo not drawn) -4.81%, Cc1oc2ncnc(N3CCOCC3)c2c1C(=O)Nc1ccc(Br)cc1F 0%, CCOc1ccc(-c2cc3c(=O)n(CC(=O)NCc4ccccc4)ccn3n2)cc1 5.1%, Fc1ccc(-n2nc(-c3ccccc3)c3cnc4ccccc4c32)cc1Cl 5.58%, O=C(CSc1nc(=O)n(Cc2ccccn2)c2c1CCC2)Nc1cccc(Cl)c1 6.37%, COCCNC(=O)CSc1nc(-c2ccc(C)cc2)[nH]c1-c1ccc(OC)cc1 0.531%, CC(C)CCNC(=O)C1CCC(CNS(=O)(=O)c2cccc3nsnc23)CC1 (stereo not drawn) 1.31%, CCc1ccc(NC(=O)CN2C(C(=O)OC)=C(c3ccccc3)c3ccccc3S2(=O)=O)cc1 -13.7%, Cc1ccccc1OCC(=O)Nc1ccccc1C(=O)OCc1cc(=O)n2nc(C3CC3)sc2n1 4.26%, Cc1cccc(NC(=O)c2oc3ccccc3c2NC(=O)Cc2coc3cc(C)cc(C)c23)c1 0.524%, Cc1ccc(C(=O)c2cn(Cc3ccccc3)c3ccccc3c2=O)cc1 -7.16%, Cc1cccc(-c2nc3cc(NC(=O)COc4ccccc4F)ccc3o2)c1 0%, COc1ccc(NC(=O)Cn2ccn(-c3ccc(C)c(C)c3)c(=O)c2=O)cc1Cl 4.53%, Cc1cc(N2CCN(c3ccc(F)cc3)CC2)n2cnnc2n1 -2.01%, Cc1ccc(-c2c3c(=O)n(C)c(=O)n(C)c3c3c(C)nc4ccccc4n23)cc1 7.72%, COc1ccc(Cl)cc1NC(=O)CSc1nc(=O)[nH]c2c1CCC2 -4.92%, O=C(Cc1cccs1)NC1CC(=O)N(c2ccc(Cl)cc2)C1 (stereo not drawn) 2.95%, Cc1ccc(-c2nn3c(-c4ccccc4)nnc3c3ccccc23)cc1 0.79%, CC(C)Sc1ncc(Cl)c(C(=O)N(Cc2ccc(F)cc2)C2CCS(=O)(=O)C2)n1 (stereo not drawn) -6.93%, Cc1cccc(C(=O)OCc2cc(=O)n3nc(C4CCCCC4)sc3n2)c1 -16.6%, COc1ccc(N2Cc3cccc(C(=O)Nc4ccc(C)c(C)c4)c3C2=O)cc1 -5.41%, CCc1cccc(N2C(=O)CS(=O)(=O)C23C(=O)N(Cc2ccc(F)cc2)c2ccc(C)cc23)c1 (stereo not drawn) -1.8%, O=C(NCCC1=CCCCC1)c1ccc2c(c1)N(Cc1ccccc1F)C(=O)c1ccccc1S2(=O)=O -10.2%, Cc1ccc(NC(=O)CN2C(=O)C(C)(C)c3ccccc32)cc1 0.363%, CC1=C(C(=O)Nc2ccc(C)cc2)C(c2ccc(Cl)cc2)n2nnnc2N1 (stereo not drawn) -19.9%, CCOc1ccc(N2CC(NC(=O)Cc3ccccc3)CC2=O)cc1 (stereo not drawn) -7.51%, CCN1c2cc(C)ccc2-n2cccc2C12CCN(C(=O)Nc1cc(OC)c(OC)c(OC)c1)CC2 0.179%, COc1ccc(N2CC(NC(=O)COc3ccccc3C)CC2=O)cc1OC (stereo not drawn) -0.184%, Cc1ccc(S(=O)(=O)c2nc(-c3ccco3)oc2SCc2ccccc2Cl)cc1 -0.371%, CCOC(=O)c1cc(-c2ccccc2)n(-c2cccc(C(=O)N(CC)c3ccccc3)c2)c1C 1.27%, Cc1cc(C)cc(NC(=O)C(=O)NC(C)c2ccccc2)c1 (stereo not drawn) -29.1%, Cc1c2cnn(-c3ccccc3)c(=O)c2c(C)n1C(C)C(=O)Nc1ccc(Br)cc1F (stereo not drawn) -5.73%, CC(C)c1ccc2oc(-c3cccc(NC(=O)c4ccc5c(c4)OCCO5)c3)nc2c1 -18.3%, Cc1ccc(-n2c(SCC(=O)Nc3cccc(F)c3)nc3c(oc4ccccc43)c2=O)cc1C 1.38%, COc1ccc(N2CCN(C(=O)NCc3noc4ccccc34)CC2)cc1 -7.6%, Cc1ccc2oc3c(c(=O)c2c1)C(c1cccc(O)c1)N(Cc1ccccc1Cl)C3=O (stereo not drawn) -0.852%, COc1cccc(NC(=O)C2CCCN2S(=O)(=O)c2ccc3c(c2)C(C)(C)C(=O)N3C)c1 (stereo not drawn) 2.31%, Cc1cc(C)cc(-n2ccn3c(CC(C)(C)CC(=O)O)nnc3c2=O)c1 8.39%, CCOc1ccc(/C=C/c2nc(C#N)c(Nc3ccc(OC)cc3)o2)cc1 -10.6%, CCCOc1ccc(CN(C(=O)c2nc(SC(C)C)ncc2Cl)C2CCS(=O)(=O)C2)cc1 (stereo not drawn) -5.25%, CSc1ccc(CCNC(=O)CCc2c(C)nc3cc(-c4ccccc4)nn3c2C)cc1 -3.2%, N#Cc1ccccc1Cn1c(=O)n(Cc2ccc(C(=O)NC3CCN(Cc4ccccc4)CC3)cc2)c(=O)c2ccccc21 -2.81%, Fc1ccc(-c2ccc(CNCCSc3nnnn3-c3ccccc3)o2)cc1Cl -6.53%, O=C(Nc1c(C(=O)Nc2cccc(F)c2)oc2ccccc12)c1cc2ccccc2o1 0.584%, COc1cc2[nH]c(=O)n(CCCCCC(=O)NCCc3ccccc3)c(=O)c2cc1OC 1.9%, CCOC(=O)c1c(NC(=O)COc2cccc(C(F)(F)F)c2)sc2c1CCCCC2 5.78%, CC(C)COc1ccc(C(=O)N2CCN(CCc3ccccn3)CC2)cc1 -6.55%, O=C(CSc1ncc(CO)n1Cc1ccccc1)Nc1ccc(C(F)(F)F)cc1 -4.54%, COc1cccc(C2c3c(-c4ccccc4O)n[nH]c3C(=O)N2CCc2ccc(OC)c(OC)c2)c1 (stereo not drawn) 1.78%, O=C(Nc1nnc(S(=O)(=O)N2CCc3ccccc32)s1)c1ccccc1 12.8%, CCOc1nc(-c2ccc(C)cc2)ccc1-c1noc(-c2ccccc2F)n1 0.974%, CCc1ccc(-c2nc(-c3cc4ccccc4oc3=O)sc2C)cc1 2.27%, Cc1ccc(Sc2c(C(=O)NCc3ccccc3C)[nH]c3ccccc23)cc1 -4.3%, COc1cc(NC(=O)c2cnc3c(-c4ccc(F)cc4)c(C)nn3c2C)cc(OC)c1 -10.1%, Cc1ccc(-c2nc3ccc(Cl)cn3c2Nc2ccc3c(c2)OCCO3)s1 3.31%, COc1ccc(CNC(=O)CN2C(=O)CCCc3ccccc32)cc1 -0.451%, CCN(CC)S(=O)(=O)c1ccc2oc(C(=O)Nc3ccc(Br)cc3F)c(C)c2c1 8.99%, COc1ccc(NC(=O)CC(C)n2nc(C)cc2C)cc1Cl (stereo not drawn) -0.962%, COc1ccc(CCNC(=O)CCc2c(C)c3cc4c(C)c(C)oc4cc3oc2=O)cc1 -4.05%

Reference: PubChem BioAssay AID493208 (National Center for Advancing Translational Sciences (NCATS), 2011)
